{"source": "PubChem BioAssay (Tox21)", "key": {"[1]": {"molecular_target": "Peroxisome proliferator-activated receptor gamma (Homo sapiens) (UniProt P37231)", "sequence (P37231 whole entry, looked up)": "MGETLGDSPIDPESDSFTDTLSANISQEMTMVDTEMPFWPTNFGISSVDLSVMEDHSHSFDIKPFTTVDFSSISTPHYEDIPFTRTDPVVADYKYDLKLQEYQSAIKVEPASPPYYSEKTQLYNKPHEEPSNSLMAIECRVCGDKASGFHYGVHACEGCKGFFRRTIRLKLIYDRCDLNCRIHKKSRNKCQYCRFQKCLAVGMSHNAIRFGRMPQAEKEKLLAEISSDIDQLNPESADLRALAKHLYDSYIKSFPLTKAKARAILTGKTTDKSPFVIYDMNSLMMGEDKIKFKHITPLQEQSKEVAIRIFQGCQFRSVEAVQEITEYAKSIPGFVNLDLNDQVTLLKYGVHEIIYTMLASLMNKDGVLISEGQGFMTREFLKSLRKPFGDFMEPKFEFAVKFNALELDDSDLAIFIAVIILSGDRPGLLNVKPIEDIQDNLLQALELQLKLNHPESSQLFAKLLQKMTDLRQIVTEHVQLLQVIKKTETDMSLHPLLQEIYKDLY", "assay": "qHTS assay to identify small molecule antagonists of the peroxisome proliferator-activated receptor gamma (PPARg) signaling pathway (AID 743191; calls by dose curve; note: nearly all actives have a fitted effect of over 30% in size; note: potency is the fitted concentration of half-maximal effect)", "conditions": "HEK293H PPARg-UAS-bla, beta-lactamase ratio, antagonist, 17 h; ratio activity, negative = inhibition: at 62.6 µM (top of the series) unless noted", "procedure,_shortened": "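Beta-lactamase reporter under UAS control in HEK293H PPARg-bla cells; compound treatment 17 h at 37C. Read-out: fluorescence intensity after 1 h room-temperature incubation with LiveBLAzer B/G FRET substrate.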"}, "[2]": {"assay": "qHTS assay for small molecule activators of the heat shock response signaling pathway (AID 743210; active = well fitted activation curve with a large enough effect in the signal ratio in the repeat runs, with a control signal flat, not every such curve was filed as active; inconclusive = weak or mixed curves; the % refers to the signal ratio; note: potency is the fitted concentration of half-maximal effect)", "conditions": "HeLa HSE-bla reporter, beta-lactamase ratio, 5 h; activation: at 62.6 µM (top of the series)", "procedure,_shortened": "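In HSE-bla HeLa cells, 5 h compound incubation (37 C) precedes addition of LiveBLAzer B/G substrate; after 2.5 h at room temperature, fluorescence intensity indicates reporter induction.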"}, "[3]": {"assay": "qHTS assay to identify small molecule agonists of the farnesoid-X-receptor (FXR) signaling pathway - cell viability counter screen (AID 743218); note: nearly all actives have a fitted effect of over 45% in size; note: potency is the fitted concentration of half-maximal effect", "conditions": "FXR-bla HEK293T viability, CellTiter-Glo luminescence, 16 h; viability change, negative = cytotoxic: at 62.6 µM (top of the series) unless noted", "procedure,_shortened": "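FXR-UAS-bla HEK 293T cells, plated 5 h at 37 C, were exposed to compounds for 16 h at 37 C. CellTiter-Glo was then added to the same wells as the bla readout; luminescence read after 30 min at room temperature.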"}, "[4]": {"molecular_target": "Vitamin D3 receptor (Homo sapiens) (UniProt P11473)", "sequence (P11473 whole entry, looked up)": "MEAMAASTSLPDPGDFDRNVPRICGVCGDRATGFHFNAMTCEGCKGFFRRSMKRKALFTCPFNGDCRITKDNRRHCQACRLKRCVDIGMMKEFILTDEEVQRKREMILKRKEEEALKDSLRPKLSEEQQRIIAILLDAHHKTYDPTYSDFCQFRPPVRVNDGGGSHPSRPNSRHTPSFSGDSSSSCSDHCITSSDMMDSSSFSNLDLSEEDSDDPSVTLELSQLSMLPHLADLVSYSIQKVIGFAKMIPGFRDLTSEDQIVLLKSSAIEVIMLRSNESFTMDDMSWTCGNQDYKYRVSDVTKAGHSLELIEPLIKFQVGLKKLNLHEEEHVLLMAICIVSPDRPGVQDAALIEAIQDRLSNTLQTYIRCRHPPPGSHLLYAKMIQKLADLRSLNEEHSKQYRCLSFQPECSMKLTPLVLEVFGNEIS", "assay": "qHTS assay to identify small molecule antagonists of the vitamin D receptor (VDR) signaling pathway (AID 743223; active = well fitted inhibition curve with a large enough effect in the signal ratio in the repeat runs, not every such curve was filed as active; inconclusive = weak or mixed curves, or effect the other way; inactive = no such curve, though single readings can be large or run the other way; the % refers to the signal ratio; note: potency is the fitted concentration of half-maximal effect)", "conditions": "VDR-UAS-bla HEK293T, beta-lactamase FRET ratio, 16 h; activity change, negative = inhibition: at 61 µM (top of the series) unless noted", "procedure,_shortened": "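Antagonist mode: compound added to VDR-bla cells alongside agonist 1alpha,25-dihydroxyvitamin D3 (3 nM final), incubation 16 h at 37C. Read-out is LiveBLAzer FRET fluorescence, 2 h at room temperature.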"}, "[5]": {"assay": "qHTS assay to identify small molecule antagonists of the peroxisome proliferator-activated receptor gamma (PPARg) signaling pathway - cell viability counter screen (AID 743194); note: potency is the fitted concentration of half-maximal effect; nearly all actives have a fitted effect of over 55% in size", "conditions": "PPARg-bla HEK293H viability, CellTiter-Glo luminescence, 17 h, co-treated with 50 nM rosiglitazone; activity change, negative = cytotoxicity: at 62.6 µM (top of the series) unless noted", "procedure,_shortened": "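Viability was measured as CellTiter-Glo luminescence in GeneBLAzer PPARg UAS-bla HEK293H cells. These cells had been exposed 17 h at 37 C to compounds together with rosiglitazone at 50 nM final, with the beta-lactamase readout taken in the same wells.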"}, "[6]": {"assay": "qHTS assay for small molecule agonists of the antioxidant response element (ARE) signaling pathway (AID 743202; active = well fitted activation curve with a large enough effect in the signal ratio in the repeat runs, not every such curve was filed as active; inconclusive = weak or mixed curves, or effect the other way; inactive = no such curve, though single readings can be large or run the other way; the % refers to the signal ratio; note: potency is the fitted concentration of half-maximal effect)", "conditions": "HepG2 ARE-bla reporter, beta-lactamase FRET, 16 h; activation: at 73.3 µM (top of the series) unless noted", "procedure,_shortened": "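An ARE-responsive beta-lactamase gene stably integrated in HepG2 cells serves as reporter. After 5 h plating and 16 h compound incubation at 37 C, fluorescence of the B/G FRET substrate was measured.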"}, "[7]": {"assay": "qHTS assay for small molecule activators of the heat shock response signaling pathway - cell viability counter screen (AID 743209); note: potency is the fitted concentration of half-maximal effect; nearly all actives have a fitted effect of over 50% in size", "conditions": "HSE-bla HeLa viability, CellTiter-Glo luminescence, 5 h; activity change, negative = cytotoxicity: at 62.6 µM (top of the series) unless noted", "procedure,_shortened": "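CellSensor HSE-bla HeLa cells, plated overnight at 37 C/5% CO2, were exposed to compounds in DMSO for 5 h at 37 C. Viability was then read in the same wells by CellTiter-Glo luminescence after 30 min at room temperature.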"}, "[8]": {"assay": "qHTS assay to identify small molecule agonists of the peroxisome proliferator-activated receptor delta (PPARd) signaling pathway - cell viability counter screen (AID 743211); note: potency is the fitted concentration of half-maximal effect; nearly all actives have a fitted effect of over 55% in size", "conditions": "PPARd-bla HEK293H viability, CellTiter-Glo luminescence, 17 h; activity change, negative = cytotoxicity: at 62.6 µM (top of the series)", "procedure,_shortened": "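Viability was measured as CellTiter-Glo luminescence (30 min, room temperature) in the same wells as the beta-lactamase readout. GeneBLAzer PPARd UAS-bla HEK293H cells received compound after 5 h plating and were incubated 17 h at 37 C.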"}, "[9]": {"molecular_target": "Bile acid receptor (Homo sapiens) (UniProt Q96RI1)", "sequence (Q96RI1 whole entry, looked up)": "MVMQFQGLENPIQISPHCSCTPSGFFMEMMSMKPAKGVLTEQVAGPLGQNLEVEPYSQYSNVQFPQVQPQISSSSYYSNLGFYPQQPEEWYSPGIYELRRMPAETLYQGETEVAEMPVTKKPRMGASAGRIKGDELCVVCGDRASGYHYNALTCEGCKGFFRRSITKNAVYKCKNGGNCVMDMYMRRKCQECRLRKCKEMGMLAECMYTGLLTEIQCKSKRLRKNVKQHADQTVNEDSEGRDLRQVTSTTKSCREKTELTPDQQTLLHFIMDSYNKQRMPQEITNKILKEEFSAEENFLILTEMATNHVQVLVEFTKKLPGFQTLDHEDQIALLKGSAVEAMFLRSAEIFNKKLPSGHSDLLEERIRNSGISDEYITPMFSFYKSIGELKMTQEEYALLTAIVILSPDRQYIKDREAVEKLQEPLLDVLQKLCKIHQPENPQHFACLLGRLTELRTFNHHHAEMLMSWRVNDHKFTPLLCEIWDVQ", "assay": "qHTS assay to identify small molecule agonists of the farnesoid-X-receptor (FXR) signaling pathway (AID 743220; active = well fitted activation curve with a large enough effect in the signal ratio in the repeat runs, not every such curve was filed as active; inconclusive = weak or mixed curves, or effect the other way; the % refers to the signal ratio; note: % is set by controls: 0 for no effect and ±100 for the full control effect)", "conditions": "HEK293T FXR-UAS-bla, beta-lactamase FRET ratio, 16 h; activation: at 62.6 µM (top of the series) unless noted", "procedure,_shortened": "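Beta-lactamase reporter under UAS control in GeneBLAzer FXR HEK 293T cells (5000/well) measured with LiveBLAzer FRET substrate after 2 h at room temperature. Compound exposure lasted 16 h at 37C.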"}, "[10]": {"assay": "qHTS assay to identify small molecule antagonists of the farnesoid-X-receptor (FXR) signaling pathway - cell viability counter screen (AID 743221; active = well fitted cell-killing curve with a large enough effect in the repeat runs, not every such curve was filed as active; inconclusive = weak or mixed curves, or effect the other way; inactive = no such curve, though single readings can be large or run the other way; note: potency is the fitted concentration of half-maximal effect; nearly all actives have a fitted effect of over 50% in size)", "conditions": "FXR-bla HEK293T viability, CellTiter-Glo luminescence, 16 h; activity change, negative = cytotoxicity: at 62.6 µM (top of the series)", "procedure,_shortened": "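Cytotoxicity counter screen run in the FXR-bla reporter wells: HEK 293T cells exposed to compound with 50 uM (final) chenodeoxycholic acid for 16 h, 37 C, then viability measured by CellTiter-Glo luminescence after 30 min, room temperature.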"}, "[11]": {"assay": "qHTS assay to identify small molecule antagonists of the peroxisome proliferator-activated receptor delta (PPARd) signaling pathway - cell viability counter screen (AID 743213); note: potency is the fitted concentration of half-maximal effect; nearly all actives have a fitted effect of over 50% in size", "conditions": "PPARd-bla HEK293H viability, CellTiter-Glo luminescence, 17 h; viability change, negative = cytotoxic: at 62 µM (top of the series) unless noted", "procedure,_shortened": "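HEK293H cells with the PPARd UAS-bla reporter, co-treated 17 h at 37 C with compounds and L165041 (300 nM final), were lysed with CellTiter-Glo. Luminescence indicated viable cell content.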"}, "[12]": {"molecular_target": "Bile acid receptor (Homo sapiens) (UniProt Q96RI1)", "assay": "qHTS assay to identify small molecule antagonists of the farnesoid-X-receptor (FXR) signaling pathway (AID 743217; active = well fitted inhibition curve with a large enough effect in the signal ratio in the repeat runs, not every such curve was filed as active; inconclusive = weak or mixed curves, or effect the other way; inactive = no such curve, though single readings can be large or run the other way; the % refers to the signal ratio; note: potency is the fitted concentration of half-maximal effect)", "conditions": "HEK293T FXR-UAS-bla, beta-lactamase ratio, CDCA-stimulated, 16 h; activity change, negative = inhibition: at 62.6 µM (top of the series) unless noted", "procedure,_shortened": "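FXR-UAS-bla HEK 293T cells pre-incubated 5 h at 37 °C, then exposed to compounds with chenodeoxycholic acid (50 uM final) for 16 h at 37 °C. Beta-lactamase reporter read by LiveBLAzer B/G FRET substrate fluorescence after 2 h at room temperature.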"}, "[13]": {"molecular_target": "Vitamin D3 receptor (Homo sapiens) (UniProt P11473)", "assay": "qHTS assay to identify small molecule agonists of the vitamin D receptor (VDR) signaling pathway (AID 743222; calls by dose curve; note: % is set by controls: 0 for no effect and ±100 for the full control effect)", "conditions": "HEK293T VDR-UAS-bla, beta-lactamase FRET ratio, 16 h; activation: at 63.5 µM (top of the series) unless noted", "procedure,_shortened": "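VDR-bla cells were plated 4 h at 37C/5% CO2, then exposed to compounds in DMSO for 16 h. After LiveBLAzer B/G FRET substrate addition and 2 h at room temperature, beta-lactamase reporter fluorescence was read.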"}, "[14]": {"assay": "qHTS assay to identify small molecule agonists of the vitamin D receptor (VDR) signaling pathway - cell viability counter screen (AID 743224); note: potency is the fitted concentration of half-maximal effect; nearly all actives have a fitted effect of over 50% in size", "conditions": "VDR-bla HEK293T viability, CellTiter-Glo luminescence, 16 h; activity change, negative = cytotoxicity: at 62.6 µM (top of the series) unless noted", "procedure,_shortened": "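VDR-bla cells were preincubated 4 h at 37C/5% CO2, then exposed to compounds for 16 h. After the 2 h room-temperature bla FRET read, CellTiter-Glo was added to the same wells and luminescence read after 30 min.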"}, "[15]": {"assay": "qHTS assay to identify small molecule antagonists of the vitamin D receptor (VDR) signaling pathway - cell viability counter screen (AID 743225)", "conditions": "VDR-bla HEK293T viability, CellTiter-Glo luminescence, 16 h; viability change, negative = cytotoxic: at 61 µM (top of the series) unless noted", "procedure,_shortened": "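Cytotoxicity counter screen read by CellTiter-Glo luminescence (30 min, room temperature) in the same wells as the VDR-bla antagonist readout. HEK 293T VDR-UAS-bla cells had 16 h at 37C with compound and 3 nM (final) 1-alpha,25-dihydroxyvitamin D3, then 2 h with FRET substrate.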"}, "[16]": {"molecular_target": "Peroxisome proliferator-activated receptor delta (Homo sapiens) (UniProt Q03181)", "sequence (Q03181 whole entry, looked up)": "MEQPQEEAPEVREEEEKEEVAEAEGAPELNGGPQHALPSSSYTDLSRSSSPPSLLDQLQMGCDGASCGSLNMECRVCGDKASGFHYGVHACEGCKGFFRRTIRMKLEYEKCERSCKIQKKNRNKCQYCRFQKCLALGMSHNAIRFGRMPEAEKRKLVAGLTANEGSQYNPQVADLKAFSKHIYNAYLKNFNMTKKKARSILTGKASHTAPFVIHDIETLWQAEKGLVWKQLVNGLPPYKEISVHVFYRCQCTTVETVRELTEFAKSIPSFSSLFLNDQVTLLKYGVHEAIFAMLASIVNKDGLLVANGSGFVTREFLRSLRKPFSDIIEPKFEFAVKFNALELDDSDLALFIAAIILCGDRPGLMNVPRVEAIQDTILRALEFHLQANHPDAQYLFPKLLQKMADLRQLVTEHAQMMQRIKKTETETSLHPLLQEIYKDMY", "assay": "qHTS assay to identify small molecule agonists of the peroxisome proliferator-activated receptor delta (PPARd) signaling pathway (AID 743212; calls by dose curve; note: % is set by controls: 0 for no effect and ±100 for the full control effect)", "conditions": "HEK293H PPARd-UAS-bla, beta-lactamase FRET ratio, 17 h; activation: at 62.6 µM (top of the series) unless noted", "procedure,_shortened": "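HEK293H UAS-bla reporter cells, human PPARd system; compounds delivered in DMSO after 5 h plating, then at 37 C. Beta-lactamase FRET read, 2 h RT substrate step.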"}, "[17]": {"molecular_target": "Peroxisome proliferator-activated receptor delta (Homo sapiens) (UniProt Q03181)", "assay": "qHTS assay to identify small molecule antagonists of the peroxisome proliferator-activated receptor delta (PPARd) signaling pathway (AID 743215; active = well fitted inhibition curve with a large enough effect in the signal ratio in the repeat runs, not every such curve was filed as active; inconclusive = weak or mixed curves, or effect the other way; inactive = no such curve, though single readings can be large or run the other way; the % refers to the signal ratio; note: % is set by controls: 0 for no effect and ±100 for the full control effect)", "conditions": "HEK293H PPARd-UAS-bla, beta-lactamase FRET ratio, antagonist, 17 h; ratio activity, negative = inhibition: at 62 µM (top of the series) unless noted", "procedure,_shortened": "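PPARd UAS-bla HEK293H cells were pre-incubated 5 h at 37 C, then given test compounds in DMSO plus agonist L165041 (300 nM final). After 17 h at 37 C, beta-lactamase FRET substrate was added; fluorescence read after 2 h at room temperature.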"}}, "note": "Several values for one entry are separate records, joined by “and”; a condition that tells them apart may be missing. Identical values can stand only once. Inconclusive results, whose numbers are uncertain, are shown with a selection of clear calls. For some of these results: Potencies beside an inconclusive call are fits to weak or partial responses and may not hold up. Activity calls are given as the source filed them. Unless noted, calls come from the whole dose curve; as a rule, active = well fitted curve in the direction sought with a large enough effect in the repeat runs; inconclusive = weak or mixed curves; inactive = no such curve, though single readings can be large; an effect the other way counts as inactive or inconclusive. Tags give direction and shape of the fitted curve or compound fluorescence and quenching."}
{"molecule": "CCCCOCCOCCOCCO", "values": [{"measurement": "Potency", "setting": "[1]", "result": "inactive"}, {"measurement": "Potency", "setting": "[2]", "result": "inconclusive: 31.6 µM [activator, single point]"}, {"measurement": "Potency", "setting": "[3]", "result": "inconclusive: 54.3 µM [cytotoxic, single point] and inactive"}, {"measurement": "activity change, negative = inhibition", "setting": "[4]", "result": "inconclusive: 2.93%"}]}
{"molecule": "COC(=O)[C@]1(C)CCC[C@@]2(C)[C@H]1CC=C1C=C(C(C)C)CC[C@@H]12", "values": [{"measurement": "Potency", "setting": "[5]", "result": "active: 54.9 µM"}, {"measurement": "Potency", "setting": "[6]", "result": "active: 61.1 µM"}, {"measurement": "Potency", "setting": "[7]", "result": "inconclusive: 49 µM [cytotoxic, single point]"}, {"measurement": "Potency", "setting": "[2]", "result": "inconclusive: 54.9 µM [single point]"}, {"measurement": "Potency", "setting": "[8]", "result": "inconclusive: 54.9 µM [cytotoxic, single point]"}, {"measurement": "Potency", "setting": "[3]", "result": "inconclusive: 54.9 µM [cytotoxic, single point]"}, {"measurement": "activation", "setting": "[9]", "result": "inconclusive: 11.7%"}, {"measurement": "Potency", "setting": "[10]", "result": "inconclusive: 1.74 µM [falling, full curve, poor fit]"}]}
{"molecule": "O=c1c(O)c(-c2ccc(O)cc2)oc2cc(O)cc(O)c12", "values": [{"measurement": "Potency", "setting": "[5]", "result": "inconclusive: 33.1 µM [rising, single point]"}, {"measurement": "Potency", "setting": "[6]", "result": "inconclusive: 32.8 µM [rising, partial curve, poor fit]"}, {"measurement": "Potency", "setting": "[2]", "result": "inconclusive: 26.3 µM"}, {"measurement": "Potency", "setting": "[11]", "result": "inconclusive: 9.32 µM [cytotoxic, partial curve, poor fit]"}, {"measurement": "Potency", "setting": "[12]", "result": "inconclusive: 29.5 µM [inhibitor]"}, {"measurement": "activity change, negative = inhibition", "setting": "[12]", "result": "inconclusive: -12.9%"}]}
{"molecule": "CCCCCCC(C)OC(=O)COc1nc(F)c(Cl)c(N)c1Cl", "note": "(centres undefined)", "values": [{"measurement": "Potency", "setting": "[5]", "result": "inconclusive: 0.0436 µM [cytotoxic, full curve, poor fit]"}, {"measurement": "Potency", "setting": "[7]", "result": "inconclusive: 54.9 µM [cytotoxic, single point]"}, {"measurement": "Potency", "setting": "[2]", "result": "inconclusive: 61.6 µM [falling, partial curve, poor fit]"}, {"measurement": "Potency", "setting": "[8]", "result": "inconclusive: 43.6 µM [cytotoxic, partial curve]"}, {"measurement": "Potency", "setting": "[11]", "result": "inconclusive: 0.275 µM [cytotoxic, partial curve, poor fit]"}, {"measurement": "Potency", "setting": "[13]", "result": "inactive"}, {"measurement": "activity change, negative = inhibition", "setting": "[4]", "result": "inconclusive: -60%"}, {"measurement": "Potency", "setting": "[14]", "result": "active: 43.6 µM"}, {"measurement": "Potency", "setting": "[15]", "result": "active: 49 µM"}]}
{"molecule": "CCCCCCCO", "values": [{"measurement": "ratio activity, negative = inhibition", "setting": "[1]", "result": "inconclusive: 18.7%"}, {"measurement": "activity change, negative = inhibition", "setting": "[4]", "result": "inconclusive: 34.6%"}]}
{"molecule": "COc1ccc(OC)c(C(O)CNC(=O)CN)c1", "note": "(centres undefined)", "values": [{"measurement": "Potency", "setting": "[1]", "result": "inconclusive: 33.5 µM [activator]"}, {"measurement": "Potency", "setting": "[16]", "result": "inactive"}, {"measurement": "ratio activity, negative = inhibition", "setting": "[17]", "result": "inconclusive: 19.8%"}, {"measurement": "Potency", "setting": "[3]", "result": "inactive"}, {"measurement": "Potency", "setting": "[4]", "result": "inactive and inconclusive: 15.1 nM [inhibitor, full curve, poor fit]"}]}
